Reference: the supplement of paper PMC12217912
This is one part of the list. The full chains were built here from the parent and the listed change. Inactive controls read about 0.05.

B1: TEV protease; numbered along this chain (parent)
chain: MGESLFKGPRDYNPISSSICHLTNESDGHTTSLYGIGFGPFIITNKHLFRRNNGTLVVQSLHGVFKVKDTTTLQQHLVDGRDMIIIRMPKDFPPFPQKLKFREPQREERICLVTTNFQTKSMSSMVSDTSCTFPSGDGIFWKHWIQTKDGQCGSPLVSTRDGFIVGIHSASNFTNTNNYFTSVPKNFMELLTNQEAQQWVSGWRLNADSVLWGGHKVFMVKPEEPFQPVKEATQL

Variants of: B1
Experiment: raw area under fraction-flipped curve 0-4 h after induction (AUC4h, not background-subtracted), DNA-recorder readout of cleavage of the substrate (dimensionless); higher = more cleavage of the substrate by the protease variant
Conditions: temperature: 34 °C; time window: 0-4 h after rhamnose induction
Description: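 In vivo DNA recorder in E. coli TOP10(DE3) ΔrhaA at 34 °C. Each TEVp single-site mutant (parent TEVp 0) is paired with a single-site variant of the 7-mer TEVs (canonical ENLYFQ|S). The substrate sits between flexible linkers in a Bxb1-sfGFP-TEVs-SsrA fusion, so cleavage stabilises Bxb1 and speeds flipping of a recombination array, read by NGS. The value is the raw area under the fraction-flipped curve over 0-4 h after rhamnose induction (AUC4h), with ≥20 reads per time point. It is not background-subtracted; inactive controls average about 0.047.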
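Note: Bxb1 expression induced with 0.2% (w/v) L-rhamnose at OD600 near 0.5, cultures sampled hourly, flipped fraction per protease–substrate barcode pair counted by paired-end Illumina sequencing.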

| Variant | area with substrate ENAYFQS | area with substrate ENCYFQS | area with substrate ENDYFQS | area with substrate ENEYFQS | area with substrate ENFYFQS | area with substrate ENGYFQS | area with substrate ENHYFQS | area with substrate ENIYFQS | area with substrate ENMYFQS | area with substrate ENNYFQS | area with substrate ENRYFQS | area with substrate ENSYFQS | area with substrate ENTYFQS | area with substrate ENVYFQS | area with substrate ENYYFQS | area with substrate ENKYFQS | area with substrate ENPYFQS | area with substrate ENQYFQS | area with substrate ENWYFQS |
| --- | --- | --- | --- | --- | --- | --- | --- | --- | --- | --- | --- | --- | --- | --- | --- | --- | --- | --- | --- |
| F163R | 0.0638 | 0.112 | 0.0539 | 0.0602 | 0.0635 | 0.0584 | 0.0409 | 0.0847 | 0.0806 | 0.0629 | 0.0688 | 0.0601 | 0.0631 | 0.0878 | 0.0701 |  |  |  |  |
| F180V | 0.044 |  | 0.0526 | 0.0625 | 0.0604 | 0.0419 | 0.0457 |  |  | 0.0511 | 0.0633 | 0.0542 | 0.0714 | 0.0561 | 0.0488 | 0.049 | 0.0673 | 0.0524 | 0.056 |
| F180C | 0.0517 | 0.0581 | 0.0545 | 0.0316 |  | 0.0526 | 0.0596 | 0.0821 |  |  | 0.0703 | 0.0362 | 0.0619 | 0.0658 |  |  | 0.0584 | 0.0617 |  |
| H168W | 0.0596 | 0.058 | 0.0611 | 0.0594 | 0.051 | 0.0628 | 0.0629 |  | 0.0543 | 0.0622 | 0.0535 | 0.0591 | 0.0564 |  | 0.054 | 0.0316 |  | 0.0683 |  |
| I167W | 0.0655 | 0.0559 | 0.0619 | 0.0584 | 0.0645 | 0.0642 | 0.0531 |  | 0.0687 | 0.0505 | 0.0565 | 0.0618 | 0.0595 | 0.0576 |  |  |  | 0.0492 | 0.0542 |
| V183T | 0.0599 | 0.0662 | 0.0566 |  | 0.0558 |  | 0.0586 | 0.0984 | 0.0772 | 0.0564 | 0.0546 | 0.0623 | 0.0747 | 0.0719 | 0.05 | 0.0682 | 0.0574 | 0.0502 |  |
| K185T | 0.0664 | 0.0522 | 0.0582 | 0.0623 | 0.0575 | 0.0617 | 0.0398 | 0.1 |  | 0.0676 | 0.0652 | 0.0531 | 0.0631 | 0.0868 | 0.0585 | 0.0568 | 0.0583 | 0.0565 | 0.0647 |
| T176Y | 0.0645 |  |  | 0.0572 | 0.0526 |  | 0.0871 |  | 0.0632 | 0.0622 | 0.0513 | 0.128 |  |  |  | 0.0682 | 0.0704 | 0.0472 |  |
| G166R | 0.0569 | 0.0604 | 0.0543 | 0.0811 | 0.0553 | 0.0461 | 0.0546 | 0.0543 |  | 0.0499 |  | 0.0452 |  | 0.0539 |  | 0.0625 |  | 0.0537 | 0.054 |
| G166V | 0.045 | 0.0535 | 0.0619 | 0.0433 | 0.0558 | 0.0515 | 0.0552 |  |  | 0.0494 |  | 0.0502 | 0.0539 | 0.063 |  |  | 0.0638 | 0.0561 |  |
| S169T | 0.0732 | 0.0674 | 0.0714 | 0.0614 | 0.05 | 0.0618 | 0.0474 | 0.134 | 0.0655 | 0.0658 | 0.0593 | 0.0924 | 0.0608 | 0.0861 | 0.0832 | 0.0709 | 0.0625 | 0.0592 | 0.0415 |
| S169F | 0.0571 |  | 0.0473 | 0.0549 | 0.0457 | 0.0874 | 0.0621 | 0.051 | 0.057 | 0.0488 | 0.0554 | 0.0599 |  |  |  |  |  | 0.0677 | 0.0485 |
| N177A | 0.0702 | 0.0729 |  | 0.0682 |  | 0.0244 | 0.0612 |  |  |  | 0.0664 | 0.0854 |  | 0.0456 | 0.0642 | 0.0712 | 0.0593 | 0.0734 | 0.065 |
| N177H | 0.0747 | 0.0558 | 0.0564 | 0.0678 |  |  | 0.0536 |  | 0.0739 |  | 0.0682 |  | 0.0642 | 0.0703 |  | 0.0502 | 0.0472 | 0.0599 | 0.0674 |
| F173D | 0.0593 | 0.0587 | 0.0638 | 0.0651 | 0.0562 | 0.0622 | 0.0599 |  | 0.095 | 0.0169 | 0.0522 | 0.0646 | 0.0569 | 0.0622 | 0.0769 | 0.0577 |  | 0.0606 | 0.05 |
| F173A | 0.0683 | 0.0117 | 0.0581 | 0.0617 | 0.0572 | 0.0346 | 0.0682 | 0.0957 |  | 0.0649 | 0.0694 | 0.0636 | 0.0566 |  | 0.0611 | 0.0747 | 0.0637 | 0.0741 |  |
| N186L | 0.0183 | 0.0809 | 0.0554 | 0.0648 | 0.0494 | 0.0492 |  | 0.0881 |  | 0.0691 |  | 0.0613 | 0.0605 |  | 0.0572 | 0.075 | 0.0648 | 0.0539 | 0.0851 |
| N186M | 0.0548 | 0.0627 | 0.0582 | 0.0659 | 0.0581 | 0.0695 |  |  |  | 0.0538 | 0.0653 | 0.075 |  | 0.0805 |  | 0.0616 |  | 0.0663 | 0.0045 |
| T181L | 0.0673 | 0.0473 |  | 0.055 |  | 0.0625 | 0.0639 |  |  | 0.0675 |  | 0.0525 | 0.0709 | 0.0586 |  |  | 0.0497 | 0.0692 | 0.0562 |
| T181M | 0.0567 | 0.0597 |  | 0.0599 | 0.0613 |  | 0.0544 |  | 0.0586 | 0.0734 | 0.0584 | 0.0603 | 0.0625 | 0.0513 |  | 0.0593 | 0.0648 | 0.0657 |  |
| I164C | 0.0583 | 0.0834 | 0.0651 | 0.0534 | 0.0552 | 0.0607 | 0.0618 | 0.102 | 0.0727 | 0.0579 | 0.0528 | 0.0607 | 0.0421 | 0.0733 |  |  | 0.0885 | 0.0561 |  |
| S171E | 0.0634 | 0.0547 | 0.0584 | 0.0705 | 0.0511 |  | 0.0477 |  |  |  | 0.0748 | 0.0731 | 0.0789 | 0.0471 |  |  | 0.0555 | 0.0555 |  |
| N175F | 0.046 | 0.0603 | 0.0654 |  |  | 0.073 | 0.0605 | 0.128 |  | 0.0673 | 0.0589 | 0.0594 |  | 0.0952 |  | 0.0504 |  | 0.0826 |  |
| N175C | 0.0915 |  | 0.0594 | 0.0523 |  |  | 0.0653 | 0.0846 | 0.0514 | 0.069 |  | 0.0593 | 0.0466 | 0.0558 | 0.0511 | 0.0556 |  | 0.0551 | 0.0533 |
